Data taken from the supplement of paper PMC8728848.
This is one part of the list.

What was measured:
Experiment in all cases: glycan array binding signal (z-score within array); higher = stronger binding
Details in all cases: glycan notation: IUPAC condensed, linker removed; mutation: E41G
[1] = biological target: Gal(b1-4)GlcNAc(b1-3)Gal(b1-4)GlcNAc(b1-3)Gal(b1-4)GlcNAc(b1-3)Gal(b1-4)GlcNAc(b1-2)Man(a1-3)[Gal(b1-4)GlcNAc(b1-3)Gal(b1-4)GlcNAc(b1-3)Gal(b1-4)GlcNAc(b1-3)Gal(b1-4)GlcNAc(b1-2)Man(a1-6)]Man(b1-4)GlcNAc(b1-4)GlcNAc
Summary of the method: (§1)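 The Consortium for Functional Glycomics database supplied 3228 glycan arrays, of which those lacking an available protein sequence were dropped. The binding signal, a within-array Z-score, was averaged across arrays of the same protein sequence and across linkers. Negative scores can be read as non-binding.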

[2] = biological target: Gal(b1-4)GlcNAc(b1-3)Gal(b1-4)GlcNAc(b1-3)Gal(b1-4)GlcNAc(b1-3)Gal(b1-4)GlcNAc(b1-2)Man(a1-3)[Gal(b1-4)GlcNAc(b1-3)Gal(b1-4)GlcNAc(b1-3)Gal(b1-4)GlcNAc(b1-3)Gal(b1-4)GlcNAc(b1-2)Man(a1-6)]Man(b1-4)GlcNAc(b1-4)[Fuc(a1-6)]GlcNAc
Summary of the method: as §1

[3] = biological target: Gal(b1-4)GlcNAc(b1-3)Gal(b1-4)GlcNAc(b1-3)Gal(b1-4)GlcNAc(b1-3)Gal(b1-4)GlcNAc(b1-2)[Gal(b1-4)GlcNAc(b1-3)Gal(b1-4)GlcNAc(b1-3)Gal(b1-4)GlcNAc(b1-3)Gal(b1-4)GlcNAc(b1-6)]Man(a1-6)[Gal(b1-4)GlcNAc(b1-3)Gal(b1-4)GlcNAc(b1-3)Gal(b1-4)GlcNAc(b1-3)Gal(b1-4)GlcNAc(b1-2)Man(a1-3)]Man(b1-4)GlcNAc(b1-4)[Fuc(a1-6)]GlcNAc
Summary of the method: as §1

[4] = biological target: Gal(b1-4)GlcNAc(b1-3)Gal(b1-4)GlcNAc(b1-3)Gal(b1-4)GlcNAc(b1-3)Gal(b1-4)GlcNAc(b1-3)Gal(b1-4)GlcNAc(b1-2)Man(a1-3)[Gal(b1-4)GlcNAc(b1-3)Gal(b1-4)GlcNAc(b1-3)Gal(b1-4)GlcNAc(b1-3)Gal(b1-4)GlcNAc(b1-3)Gal(b1-4)GlcNAc(b1-2)Man(a1-6)]Man(b1-4)GlcNAc(b1-4)GlcNAc
Summary of the method: as §1

[5] = biological target: Gal(b1-4)GlcNAc(b1-3)Gal(b1-4)GlcNAc(b1-3)Gal(b1-4)GlcNAc(b1-3)Gal(b1-4)GlcNAc(b1-3)Gal(b1-4)GlcNAc(b1-2)Man(a1-3)[Gal(b1-4)GlcNAc(b1-3)Gal(b1-4)GlcNAc(b1-3)Gal(b1-4)GlcNAc(b1-3)Gal(b1-4)GlcNAc(b1-3)Gal(b1-4)GlcNAc(b1-2)Man(a1-6)]Man(b1-4)GlcNAc(b1-4)[Fuc(a1-6)]GlcNAc
Summary of the method: as §1

[6] = biological target: Gal(b1-4)GlcNAc(b1-3)Gal(b1-4)GlcNAc(b1-3)Gal(b1-4)GlcNAc(b1-3)Gal(b1-4)GlcNAc(b1-3)Gal(b1-4)GlcNAc(b1-2)[Gal(b1-4)GlcNAc(b1-3)Gal(b1-4)GlcNAc(b1-3)Gal(b1-4)GlcNAc(b1-3)Gal(b1-4)GlcNAc(b1-3)Gal(b1-4)GlcNAc(b1-6)]Man(a1-6)[Gal(b1-4)GlcNAc(b1-3)Gal(b1-4)GlcNAc(b1-3)Gal(b1-4)GlcNAc(b1-3)Gal(b1-4)GlcNAc(b1-3)Gal(b1-4)GlcNAc(b1-2)Man(a1-3)]Man(b1-4)GlcNAc(b1-4)[Fuc(a1-6)]GlcNAc
Summary of the method: as §1

[7] = biological target: Gal(b1-4)GlcNAc(b1-3)Gal(b1-4)GlcNAc(b1-3)Gal(b1-4)GlcNAc(b1-3)Gal(b1-4)GlcNAc(b1-3)Gal(b1-4)GlcNAc(b1-3)Gal(b1-4)GlcNAc(b1-2)Man(a1-3)[Gal(b1-4)GlcNAc(b1-3)Gal(b1-4)GlcNAc(b1-3)Gal(b1-4)GlcNAc(b1-3)Gal(b1-4)GlcNAc(b1-3)Gal(b1-4)GlcNAc(b1-3)Gal(b1-4)GlcNAc(b1-2)Man(a1-6)]Man(b1-4)GlcNAc(b1-4)GlcNAc
Summary of the method: as §1

[8] = biological target: Gal(b1-4)GlcNAc(b1-3)Gal(b1-4)GlcNAc(b1-3)GalNAc
Summary of the method: as §1

[9] = biological target: Gal(b1-4)GlcNAc(b1-3)Gal(b1-4)GlcNAc(b1-3)[Gal(b1-4)GlcNAc(b1-3)Gal(b1-4)GlcNAc(b1-6)]GalNAc
Summary of the method: as §1

[10] = biological target: Gal(b1-4)GlcNAc(b1-3)Gal(b1-4)GlcNAc(b1-6)[Gal(b1-3)]GalNAc
Summary of the method: as §1

[11] = biological target: Gal(b1-4)GlcNAc(b1-3)Gal(b1-4)[Fuc(a1-3)]GlcNAc(b1-3)Gal(b1-4)[Fuc(a1-3)]GlcNAc
Summary of the method: as §1

[12] = biological target: Gal(b1-4)GlcNAc(b1-3)GalNAc
Summary of the method: as §1

[13] = biological target: Gal(b1-4)GlcNAc(b1-3)[Fuc(a1-3)GlcNAc(b1-6)]Gal(b1-4)Glc
Summary of the method: as §1

[14] = biological target: Gal(b1-4)GlcNAc(b1-3)[Gal(b1-4)GlcNAc(b1-6)]Gal(b1-4)GlcNAc
Summary of the method: as §1

[15] = biological target: Gal(b1-4)GlcNAc(b1-3)[GlcNAc(b1-6)]Gal(b1-4)GlcNAc
Summary of the method: as §1

[16] = biological target: Gal(b1-4)GlcNAc(b1-6)Gal(b1-4)GlcNAc
Summary of the method: as §1

[17] = biological target: Gal(b1-4)GlcNAc(b1-6)GalNAc
Summary of the method: as §1

[18] = biological target: Gal(b1-4)GlcNAc(b1-6)[Gal(b1-3)]GalNAc
Summary of the method: as §1

[19] = biological target: Gal(b1-4)GlcNAc(b1-6)[Gal(b1-4)GlcNAc(b1-3)]GalNAc
Summary of the method: as §1

Gal(b1-4)GlcNAc6P = biological target: Gal(b1-4)GlcNAc6P
Summary of the method: as §1

Gal(b1-6)Gal = biological target: Gal(b1-6)Gal
Summary of the method: as §1

Gal3S(b1-3)GalNAc = biological target: Gal3S(b1-3)GalNAc
Summary of the method: as §1

Gal3S(b1-3)GlcNAc = biological target: Gal3S(b1-3)GlcNAc
Summary of the method: as §1

B1: CVN-E41G (protein)
chain: MHHHHHHENLYFQSGNFSQACYNSAIQGSVLTSTCIRTNGGYNTSSIDLNSVIGNVDGSLKWQGSNFIETCRNTQLAGSSELAAECKTRAQQFVSTKINLDDHIAAIDGTLKYE
**Q.** B1 was tested. Which “glycan array binding signal (z-score)” value [1] did it give?
**A.** The value was -0.153.

**Q.** And the “glycan array binding signal (z-score)” value [2]?
**A.** Its value is -0.113.

**Q.** And the “glycan array binding signal (z-score)” value [3]?
**A.** The value was -0.125.

**Q.** And the “glycan array binding signal (z-score)” value [4]?
**A.** Its value is -0.19.

**Q.** What about the “glycan array binding signal (z-score)” value [5] of the same binder?
**A.** The value was 0.22.

**Q.** What about the “glycan array binding signal (z-score)” value [6] of the same binder?
**A.** The value was -0.119.

**Q.** What about the “glycan array binding signal (z-score)” value [7] of the same binder?
**A.** The value was -0.106.

**Q.** What about the “glycan array binding signal (z-score)” value [8] of the same binder?
**A.** Its value is -0.169.

**Q.** What about the “glycan array binding signal (z-score)” value [9] of the same binder?
**A.** The value was -0.138.

**Q.** What about the “glycan array binding signal (z-score)” value [10] of the same binder?
**A.** The value was -0.139.

**Q.** What about the “glycan array binding signal (z-score)” value [11] of the same binder?
**A.** Its value is -0.099.

**Q.** What about the “glycan array binding signal (z-score)” value [12] of the same binder?
**A.** The value was -0.161.

**Q.** What about the “glycan array binding signal (z-score)” value [13] of the same binder?
**A.** Its value is -0.171.

**Q.** And the “glycan array binding signal (z-score)” value [14]?
**A.** The value was -0.179.

**Q.** And the “glycan array binding signal (z-score)” value [15]?
**A.** Its value is -0.065.

**Q.** And the “glycan array binding signal (z-score)” value [16]?
**A.** Its value is -0.173.

**Q.** What about the “glycan array binding signal (z-score)” value [17] of the same binder?
**A.** The value was -0.14.

**Q.** And the “glycan array binding signal (z-score)” value [18]?
**A.** Its value is -0.057.

**Q.** And the “glycan array binding signal (z-score)” value [19]?
**A.** The value was -0.157.

**Q.** What about the “glycan array binding signal (z-score)” value (Gal(b1-4)GlcNAc6P) of the same binder?
**A.** Its value is -0.122.

**Q.** What about the “glycan array binding signal (z-score)” value (Gal(b1-6)Gal) of the same binder?
**A.** The value was -0.136.

**Q.** And the “glycan array binding signal (z-score)” value (Gal3S(b1-3)GalNAc)?
**A.** Its value is -0.179.

**Q.** And the “glycan array binding signal (z-score)” value (Gal3S(b1-3)GlcNAc)?
**A.** Its value is -0.179.
